{"source": "ChEMBL document CHEMBL4888484", "about": "“Replenishing the malaria drug discovery pipeline: Screening and hit evaluation of the MMV Hit Generation Library 1 (HGL1) against asexual blood stage Plasmodium falciparum ,using a nano luciferase reporter read-out” (2022)", "note": "Among all 150,000 compounds or so, about 540 (0.36%) showed an effect of 50% or more. The list shows a part of the results.", "data": [{"system": "Plasmodium falciparum", "test": "Primary screen in NF54 nanoGlo assay, in single point, at 2uM, 72h; a lower Z score goes with more inhibition", "format": "functional, Erythrocyte", "conditions": "timepoint 72 hour", "units": {"% Inhibition": "%"}, "values": [{"smiles": "CCn1cc(S(=O)(=O)NC(=O)Cc2ccc(F)cc2)cn1", "% Inhibition": -8, "Z score": 1.12}, {"smiles": "CC(=O)N1CCN(C(=O)CN2CCCCC[C@H]2c2ccc(C)o2)CC1", "% Inhibition": -14, "Z score": 1.28}, {"smiles": "COc1ccccc1-c1n[nH]c(NC(=O)CN2CCNC(=O)C2)c1C", "% Inhibition": -2, "Z score": 0.45}, {"smiles": "COCC(=O)N(C)c1ccc(F)c(Cl)c1", "% Inhibition": -1, "Z score": 0.22}, {"smiles": "COc1cc2c(cc1OC)[C@@H](NC(=O)C(F)(F)F)CNC2=O", "% Inhibition": 31, "Z score": -3.99}, {"smiles": "Cc1cc(Nc2ccc(F)cc2)nc2nn(Cc3cc(F)cc(F)c3)c(=O)n12", "% Inhibition": -29, "Z score": 3.12}, {"smiles": "Cc1cnc(-c2ccccc2)n1CCNC(=O)NC[C@H]1CCCO1", "% Inhibition": -8, "Z score": 0.93}, {"smiles": "CC(C)n1ncc2cc(S(=O)(=O)N3Cc4ccccc4[C@@H]3C)ccc21", "% Inhibition": 33, "Z score": -3.69}, {"smiles": "Cc1cccc2c(-c3cc(N)nc(N)n3)c[nH]c12", "% Inhibition": 85, "Z score": -9.19}, {"smiles": "O=C1c2ccccc2C(=O)N1Cc1ccc2[nH]c3c(c2c1)CCCC3", "% Inhibition": -11, "Z score": 1.39}, {"smiles": "c1cnc(-c2csc(NCC3CCC3)n2)cn1", "% Inhibition": -12, "Z score": 1.05}, {"smiles": "CC(C)(C)c1ccc2c(c1)CN(C(=O)c1nc(=O)[nH][nH]1)CC2", "% Inhibition": -4, "Z score": 0.49}, {"smiles": "CC(C)c1nn(C)c2sc(C(=O)N(C)Cc3cnn(C)c3)cc12", "% Inhibition": -6, "Z score": 0.75}, {"smiles": "COCCC1(C(=O)N2CC3CCC2C3)CCC1", "note": "(stereo not given)", "% Inhibition": 7, "Z score": -0.98}, {"smiles": "CCCCNC(=O)C(=O)Nc1ccc(C(C)(C)C)cc1", "% Inhibition": -5, "Z score": 0.81}, {"smiles": "C[C@@H](c1nnnn1C)S(=O)(=O)Cc1ccccc1C1CC1", "% Inhibition": -15, "Z score": 1.84}, {"smiles": "CCN(CC1CCN(c2ccccn2)CC1)C(=O)Cn1cnnn1", "% Inhibition": -1, "Z score": 0.2}, {"smiles": "O=C(NCc1ccccc1)C1CCN(S(=O)(=O)c2ccc3c(c2)CCCN3C(=O)C2CCC2)CC1", "% Inhibition": -12, "Z score": 2.31}, {"smiles": "O=C1NCCCn2cc(nn2)CC2(CCN(Cc3cccc4ncccc34)CC2)C(=O)N[C@H]1Cc1ccccc1", "% Inhibition": -23, "Z score": 2.93}, {"smiles": "Cn1nc(C(=O)NCc2cccc(F)c2)cc1C(=O)NCc1cccc(F)c1", "% Inhibition": -7, "Z score": 0.96}, {"smiles": "O=C(c1nccc2ccccc12)N1CC(F)(F)C[C@H]1COc1ccncc1", "% Inhibition": -6, "Z score": 0.97}, {"smiles": "Cc1ccc(S(N)(=O)=O)c(C(=O)NC[C@](C)(O)c2ccc(C)o2)c1", "% Inhibition": -16, "Z score": 2.18}, {"smiles": "O=C(Nc1cccnc1-n1cc(Br)cn1)C1Oc2ccccc2O1", "% Inhibition": 9, "Z score": -1.48}, {"smiles": "O=C(Cc1ccsc1)N1CCn2nccc2C1", "% Inhibition": -12, "Z score": 1.8}, {"smiles": "Cc1ccc(OCC(=O)NC2CCN(Cc3ccccc3)CC2)cc1", "% Inhibition": -8, "Z score": 0.81}, {"smiles": "O=S(=O)(N[C@H]1CCc2[nH]c3ccccc3c2C1)c1ccc(F)cc1", "% Inhibition": 0, "Z score": -0.04}, {"smiles": "COc1ccc(F)cc1-c1nccn1Cc1c(C)nn(C(C)C)c1C", "% Inhibition": 3, "Z score": -0.65}, {"smiles": "NC(=O)[C@@H]1CN(Cc2ccc3c(c2)CCO3)C[C@H]1COc1ccncc1", "% Inhibition": 2, "Z score": -0.33}, {"smiles": "CCc1ccc(-c2cn([C@H](c3ccccc3)c3nnc(N)s3)nn2)o1", "% Inhibition": -16, "Z score": 1.47}, {"smiles": "CCN(C)S(=O)(=O)N1C[C@H](C(=O)O)[C@@H](C2CC2)C1", "% Inhibition": -12, "Z score": 2.1}, {"smiles": "O=C(O)[C@H]1CN(C(=O)Cc2cccc(F)c2)C[C@@H]1C1CC1", "% Inhibition": -16, "Z score": 3.08}, {"smiles": "COc1cc(=O)[nH]cc1C(=O)N1CC[C@H](c2ccccc2)[C@H](CO)C1", "% Inhibition": -12, "Z score": 1.79}, {"smiles": "CC[C@@H](C(=O)N1CCC(C#N)CC1)N(C)CC", "% Inhibition": -11, "Z score": 1.68}, {"smiles": "Cc1ncc(C(=O)OCC(F)(F)C(F)F)c(N)n1", "% Inhibition": -2, "Z score": 0.35}, {"smiles": "CC1COC(c2ccccc2Cl)CN1C(=O)NCc1cccnc1", "note": "(stereo not given)", "% Inhibition": -1, "Z score": 0.19}, {"smiles": "CO[C@@H](CNS(C)(=O)=O)c1cccc(Cl)c1", "% Inhibition": -10, "Z score": 1.22}, {"smiles": "CCCc1nc(C)c(CNCc2nc(C)c(C)n2C)s1", "% Inhibition": -8, "Z score": 1.52}, {"smiles": "Cc1nn(-c2ccccc2)c(C)c1C(=O)NC[C@H]1CCS(=O)(=O)C1", "% Inhibition": -5, "Z score": 0.87}, {"smiles": "CN(Cc1ccccc1Br)C(=O)CCNC1C2CCOC2C12CCC2", "note": "(stereo not given)", "% Inhibition": -3, "Z score": 0.38}, {"smiles": "COc1ccc(N2C(=O)c3ccccc3N[C@@H]2c2cccn2C)c(OC)c1", "% Inhibition": -10, "Z score": 1.89}, {"smiles": "CCCn1nnnc1CN1CCO[C@H](c2nc(C)n[nH]2)C1", "% Inhibition": 0, "Z score": 0}, {"smiles": "Oc1ccc(C2N=C(c3ccccc3)NC(c3ccccc3)=N2)cc1", "% Inhibition": -1, "Z score": 0.16}, {"smiles": "Cc1nccn1CCN(C)Cc1ccc(Cl)c(F)c1", "% Inhibition": -7, "Z score": 1.29}, {"smiles": "O=C(Cn1cccn1)N1CCCC[C@@H]1CCOc1cccc(CN2CCN(c3cccc(Cl)c3)CC2)c1", "% Inhibition": 8, "Z score": -1.45}, {"smiles": "Cc1ncsc1C(=O)O[C@H](c1cccnc1)C(F)(F)F", "% Inhibition": 0, "Z score": -0.01}, {"smiles": "Cc1csc(CN(C)Cc2nc(C)c(C)n2C)n1", "% Inhibition": -20, "Z score": 1.84}, {"smiles": "COC(C)(C)c1noc(-c2cc3cc(O)ccc3nc2C)n1", "% Inhibition": -4, "Z score": 0.6}, {"smiles": "O=C(NC1CCCCCC1)[C@@H]1CC(c2ccccc2)=NO1", "% Inhibition": -4, "Z score": 0.49}, {"smiles": "CCOc1cc(CNC2CCCC2)cc(Br)c1OCC(=O)Nc1ccccc1OC", "% Inhibition": -12, "Z score": 1.42}, {"smiles": "COCCn1c(=O)n(Cc2ncccn2)c2cc(C(=O)OC)ccc21", "% Inhibition": -3, "Z score": 0.55}, {"smiles": "Cc1nc(NCCCn2cncn2)cc(C(C)C)n1", "% Inhibition": 3, "Z score": -0.26}, {"smiles": "Cc1ccc(-c2nc3cnccn3c2Nc2ccc(C)c(Br)c2)o1", "% Inhibition": 1, "Z score": -0.08}, {"smiles": "Fc1ccc(-c2cc(-c3ccccc3)nnc2-c2ccccc2)cc1", "% Inhibition": -3, "Z score": 0.59}, {"smiles": "FC1(F)C[C@@H](c2nnc(-c3ccncc3)o2)N(CC2CC2)C1", "% Inhibition": -2, "Z score": 0.41}, {"smiles": "Cn1c(C(=O)Nc2nc3c(s2)CCC3)cc(Cl)c1Cl", "% Inhibition": -4, "Z score": 0.72}]}]}
